# The supplement of paper PMC6089552
# About 300 (9.4%) of roughly 3,200 compounds showed activity. This is a selection; strong and weak results do not stand in their true shares.
# Tested on: A673/TR/shEF
# Assay: cell viability (LOESS-normalised, relative to median of negative controls) (log2 ratio); higher = more viable cells (less compound effect), active = hit call of the paper (over 3 MAD below the median)
# Conditions: treatment time: 72 h
# In short: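 A673/TR/shEF Ewing sarcoma cells (1,500 per well, 384-well plates) were grown with or without doxycycline to induce EWS-FLI1 shRNA knockdown, starting 24 h before compounds. Library compounds at two or more concentrations, with DMSO controls, were added for three days. Cell viability was read by CellTiter-Glo luminescence on an Envision reader, then LOESS-corrected per plate, divided by the median of negative controls and log2-transformed. Hits were wells at least three median absolute deviations from the median of all screened wells.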
# [1] = 0.25 µM, library screen: screen1, EWS-FLI1 expression: high (no doxycycline)
# [2] = 0.25 µM, library screen: screen1, EWS-FLI1 expression: low (doxycycline-induced shRNA knockdown)
# [3] = 2.5 µM, library screen: screen1, EWS-FLI1 expression: high (no doxycycline)
# [4] = 2.5 µM, library screen: screen1, EWS-FLI1 expression: low (doxycycline-induced shRNA knockdown)
# [5] = 0.25 µM, library screen: screen2, EWS-FLI1 expression: high (no doxycycline)
# [6] = 0.25 µM, library screen: screen2, EWS-FLI1 expression: low (doxycycline-induced shRNA knockdown)
# [7] = 2.5 µM, library screen: screen2, EWS-FLI1 expression: high (no doxycycline)
# [8] = 2.5 µM, library screen: screen2, EWS-FLI1 expression: low (doxycycline-induced shRNA knockdown)
# [9] = 0.025 µM, library screen: screen1, EWS-FLI1 expression: high (no doxycycline)
# [10] = 0.025 µM, library screen: screen1, EWS-FLI1 expression: low (doxycycline-induced shRNA knockdown)
# [11] = 25 µM, library screen: screen1, EWS-FLI1 expression: high (no doxycycline)
# [12] = 25 µM, library screen: screen1, EWS-FLI1 expression: low (doxycycline-induced shRNA knockdown)
# [13] = 0.103 µM, library screen: screen3, EWS-FLI1 expression: high (no doxycycline)
# [14] = 0.103 µM, library screen: screen3, EWS-FLI1 expression: low (doxycycline-induced shRNA knockdown)
# [15] = 0.308 µM, library screen: screen3, EWS-FLI1 expression: high (no doxycycline)
# [16] = 0.308 µM, library screen: screen3, EWS-FLI1 expression: low (doxycycline-induced shRNA knockdown)
# [17] = 0.926 µM, library screen: screen3, EWS-FLI1 expression: high (no doxycycline)
# [18] = 0.926 µM, library screen: screen3, EWS-FLI1 expression: low (doxycycline-induced shRNA knockdown)
# [19] = 2.8 µM, library screen: screen3, EWS-FLI1 expression: high (no doxycycline)
# [20] = 2.8 µM, library screen: screen3, EWS-FLI1 expression: low (doxycycline-induced shRNA knockdown)
# [21] = 8.3 µM, library screen: screen3, EWS-FLI1 expression: high (no doxycycline)
# [22] = 8.3 µM, library screen: screen3, EWS-FLI1 expression: low (doxycycline-induced shRNA knockdown)
# [23] = 25 µM, library screen: screen3, EWS-FLI1 expression: high (no doxycycline)
# [24] = 25 µM, library screen: screen3, EWS-FLI1 expression: low (doxycycline-induced shRNA knockdown)
compound,measurement,setting,value
Cc1ccccc1N1OC2C(=O)N(Cc3ccccc3)C(=O)C2C1c1ccc(F)cc1 (stereo not given),cell viability (log2),[1],inactive: 0.112
same,cell viability (log2),[2],inactive: -0.00916
same,cell viability (log2),[3],inactive: 0.0853
same,cell viability (log2),[4],inactive: -0.0466
O=c1[nH]c2cc([N+](=O)[O-])c([N+](=O)[O-])cc2[nH]c1=O,cell viability (log2),[5],inactive: 0.13
same,cell viability (log2),[6],inactive: 0.0919
same,cell viability (log2),[7],inactive: 0.164
same,cell viability (log2),[8],inactive: 0.101
O=C(CCc1ccc(O)cc1)c1c(O)cc(O)cc1O,cell viability (log2),[1],inactive: 0.0445
same,cell viability (log2),[2],inactive: 0.00928
same,cell viability (log2),[5],inactive: 0.211
same,cell viability (log2),[6],inactive: 0.0442
same,cell viability (log2),[3],inactive: 0.117
same,cell viability (log2),[4],inactive: 0.0976
same,cell viability (log2),[7],inactive: 0.201
same,cell viability (log2),[8],inactive: 0.0347
COC(=O)/C=C/c1cc(O)ccc1O,cell viability (log2),[9],inactive: 0.177
same,cell viability (log2),[10],inactive: 0.0349
same,cell viability (log2),[1],inactive: 0.18
same,cell viability (log2),[2],inactive: 0.0134
same,cell viability (log2),[5],inactive: 0.108
same,cell viability (log2),[6],inactive: 0.184
same,cell viability (log2),[3],active: -0.379
same,cell viability (log2),[4],inactive: -0.137
same,cell viability (log2),[7],inactive: 0.0473
same,cell viability (log2),[8],inactive: 0.11
same,cell viability (log2),[11],active: -0.809
same,cell viability (log2),[12],active: -0.511
C[N+](C)(C)CCO,cell viability (log2),[1],inactive: 0.0789
same,cell viability (log2),[2],inactive: 0.0426
same,cell viability (log2),[5],inactive: 0.169
same,cell viability (log2),[6],inactive: 0.123
same,cell viability (log2),[3],inactive: 0.0401
same,cell viability (log2),[4],inactive: 0.0832
same,cell viability (log2),[7],inactive: 0.0772
same,cell viability (log2),[8],inactive: 0.05
CN(C)CCOC(C)(c1ccccc1)c1ccccn1 (stereo not given),cell viability (log2),[1],inactive: 0.175
same,cell viability (log2),[2],inactive: 0.137
same,cell viability (log2),[5],inactive: 0.163
same,cell viability (log2),[6],inactive: 0.0565
same,cell viability (log2),[3],inactive: 0.19
same,cell viability (log2),[4],inactive: 0.165
same,cell viability (log2),[7],inactive: 0.0665
same,cell viability (log2),[8],inactive: 0.0975
COc1cccc(-c2cc(=O)c3ccccc3o2)c1N,cell viability (log2),[9],inactive: 0.268
same,cell viability (log2),[10],inactive: -0.0228
same,cell viability (log2),[1],0.278
same,cell viability (log2),[2],inactive: -0.0268
same,cell viability (log2),[5],inactive: 0.18
same,cell viability (log2),[6],inactive: 0.11
same,cell viability (log2),[3],active: -0.37
same,cell viability (log2),[4],inactive: 0.0789
same,cell viability (log2),[7],inactive: 0.195
same,cell viability (log2),[8],inactive: 0.139
same,cell viability (log2),[11],inactive: -0.0514
same,cell viability (log2),[12],inactive: 0.0727
C[C@@H](O)[C@H]1C(=O)N2C(C(=O)O)=C(S[C@@H]3CN[C@H](CNS(N)(=O)=O)C3)[C@H](C)[C@H]12,cell viability (log2),[13],inactive: 0.033
same,cell viability (log2),[14],inactive: 0.0995
same,cell viability (log2),[15],inactive: -0.0322
same,cell viability (log2),[16],inactive: 0.0266
same,cell viability (log2),[17],inactive: -0.0529
same,cell viability (log2),[18],inactive: 0.0199
same,cell viability (log2),[19],inactive: 0.0539
same,cell viability (log2),[20],inactive: 0.00336
same,cell viability (log2),[21],inactive: -0.00784
same,cell viability (log2),[22],inactive: 0.05
same,cell viability (log2),[23],inactive: 0.0267
same,cell viability (log2),[24],inactive: 0.0394
CC1=C[C@@H]2[C@@H](CC1)[C@](C)(O)CC[C@H]2C(C)C,cell viability (log2),[1],inactive: 0.0888
same,cell viability (log2),[2],inactive: 0.0211
same,cell viability (log2),[3],inactive: 0.101
same,cell viability (log2),[4],inactive: 0.102
CC(C)(C#N)c1cc(Cn2cncn2)cc(C(C)(C)C#N)c1,cell viability (log2),[13],inactive: 0.0557
same,cell viability (log2),[14],inactive: 0.0542
same,cell viability (log2),[15],inactive: 0.133
same,cell viability (log2),[16],inactive: 0.115
same,cell viability (log2),[17],inactive: 0.078
same,cell viability (log2),[18],inactive: 0.0366
same,cell viability (log2),[19],inactive: 0.103
same,cell viability (log2),[20],inactive: 0.0298
same,cell viability (log2),[21],inactive: 0.0453
same,cell viability (log2),[22],inactive: 0.0596
same,cell viability (log2),[23],inactive: 0.173
same,cell viability (log2),[24],inactive: 0.0922
C=CC(C1=CC(=O)C(OC)=CC1=O)c1ccc(OC)cc1 (stereo not given),cell viability (log2),[1],inactive: 0.133
same,cell viability (log2),[2],inactive: 0.135
same,cell viability (log2),[3],inactive: 0.157
same,cell viability (log2),[4],inactive: 0.265
COc1cc2nccc(Oc3ccc(NC(=O)Nc4cc(C)on4)c(Cl)c3)c2cc1OC,cell viability (log2),[13],inactive: 0.0507
same,cell viability (log2),[14],inactive: 0.0378
same,cell viability (log2),[15],inactive: 0.0179
same,cell viability (log2),[16],inactive: 0.0528
same,cell viability (log2),[17],inactive: 0.0271
same,cell viability (log2),[18],inactive: 0.088
same,cell viability (log2),[19],inactive: 0.141
same,cell viability (log2),[20],inactive: 0.131
same,cell viability (log2),[21],inactive: 0.156
same,cell viability (log2),[22],inactive: 0.204
same,cell viability (log2),[23],inactive: -0.04
same,cell viability (log2),[24],inactive: 0.155
COc1cc(C(=O)N2CCOCC2)c([N+](=O)[O-])cc1OC,cell viability (log2),[1],inactive: 0.0993
same,cell viability (log2),[2],inactive: 0.0316
same,cell viability (log2),[3],inactive: 0.0928
same,cell viability (log2),[4],inactive: -0.0159
Oc1cc(O)c2c(c1)O[C@H](c1cc(O)c(O)c(O)c1)[C@H](O)C2,cell viability (log2),[1],inactive: 0.0176
same,cell viability (log2),[2],inactive: 0.0257
same,cell viability (log2),[3],inactive: 0.0607
same,cell viability (log2),[4],inactive: 0.0489
O=C(O)c1cc(=O)cc(C(=O)O)[nH]1,cell viability (log2),[5],inactive: 0.183
same,cell viability (log2),[6],inactive: 0.138
same,cell viability (log2),[7],inactive: 0.0402
same,cell viability (log2),[8],inactive: 0.037
CN1CCc2c(cc(O)c(O)c2Cl)C(c2cccc(Cl)c2)C1 (stereo not given),cell viability (log2),[5],inactive: 0.0833
same,cell viability (log2),[6],inactive: 0.137
same,cell viability (log2),[7],inactive: 0.229
same,cell viability (log2),[8],inactive: 0.0573
COCc1cc(C)nc(SCC(=O)NC(C)(C)C)c1C#N,cell viability (log2),[1],inactive: 0.122
same,cell viability (log2),[2],inactive: 0.0633
same,cell viability (log2),[3],inactive: 0.0645
same,cell viability (log2),[4],inactive: -0.0386
